{"source": "PubChem BioAssay AID624172", "about": "(National Center for Advancing Translational Sciences (NCATS), 2012)", "note": "In all, about 380,000 compounds went through this assay and about 25 (0.007%) were called active. The inconclusive results got no clear call from the source; some entries with a clear call stand among them for comparison. Calls follow the shape of the dose curve; as a rule, active = well fitted activation curve with a large enough effect; inconclusive = small, poorly fitted or top-dose-only effect; inactive = no such curve, though single readings can be large or run the other way. No potency is given beside an inconclusive call; the fits are too rough. Potency is read from the fitted curve at half-maximal effect; tags tell the direction and shape of the fitted curve.", "data": [{"molecular_target": "Glucagon-like peptide 1 receptor (Homo sapiens) (UniProt P43220)", "sequence (P43220 whole entry, looked up)": "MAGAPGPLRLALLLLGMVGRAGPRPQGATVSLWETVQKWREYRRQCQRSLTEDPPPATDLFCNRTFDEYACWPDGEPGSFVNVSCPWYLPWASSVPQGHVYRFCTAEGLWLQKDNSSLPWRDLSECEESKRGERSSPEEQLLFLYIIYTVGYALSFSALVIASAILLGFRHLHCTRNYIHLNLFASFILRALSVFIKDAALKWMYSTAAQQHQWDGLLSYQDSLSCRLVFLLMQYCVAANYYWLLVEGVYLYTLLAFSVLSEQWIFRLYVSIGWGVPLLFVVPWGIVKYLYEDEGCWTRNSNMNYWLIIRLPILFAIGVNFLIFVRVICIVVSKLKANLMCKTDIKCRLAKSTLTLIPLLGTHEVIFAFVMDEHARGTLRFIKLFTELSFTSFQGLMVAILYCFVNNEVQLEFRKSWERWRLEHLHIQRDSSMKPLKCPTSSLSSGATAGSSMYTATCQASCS", "assay": "qHTS of GLP-1 Receptor Agonists; as to activation: % of control where 0% means no effect", "details": "HEK293 GLP-1R CRE-luciferase, luminescence, 4-6 h, cells express a hypersensitive GLP-1R form; activation: at 45.6 µM (top of the series) unless noted", "values": [{"smiles": "Cc1ccc(CN2CCN(Cc3ccco3)CC2)cc1", "activation": "inactive: 0.68%"}, {"smiles": "Cc1ccc(C2(c3noc(CN(C)CC4CCCCO4)n3)CCCC2)cc1", "note": "(stereo not drawn)", "activation": "inactive: 2.22%"}, {"smiles": "CN(CC(=O)Nc1ccc(N2CCOCC2)cc1)CC(=O)Nc1ccc(Cl)cc1[N+](=O)[O-]", "Potency": "inconclusive [activator, single point]"}, {"smiles": "CC(=O)c1cccc(-c2cnc3c(NC=O)cc(-c4ccc(C(=O)N5CCOCC5)cc4)cn23)c1", "Potency": "inconclusive [activator, partial curve, poor fit]"}, {"smiles": "COc1ccc(S(=O)(=O)N2CCOCC2)cc1NC(=O)c1cccc2c(=O)c(C)c(-c3ccccc3)oc12", "Potency": "inconclusive [activator, full curve, poor fit]"}, {"smiles": "O=[N+]([O-])c1cccc(CSC2=NCCN2S(=O)(=O)c2ccccc2)c1", "Potency": "inconclusive [activator, partial curve, poor fit]"}, {"smiles": "COc1ccc(N/C=C/c2nc(SC)nnc2C)cc1", "Potency": "inconclusive [activator, partial curve, poor fit]"}, {"smiles": "COc1ccc(CC(=O)Nc2nncs2)cc1OC", "Potency": "inconclusive [activator, partial curve, poor fit]"}, {"smiles": "Cc1ccc(-c2ccc(/C=C(\\C#N)C(N)=S)o2)c([N+](=O)[O-])c1", "Potency": "inconclusive [activator, single point]"}, {"smiles": "O=C(O)CCN1CCc2ccccc2C1c1ccncc1", "note": "(stereo not drawn)", "activation": "inactive: -1.97%"}, {"smiles": "Cc1cccc(-c2nsc(SCC(=O)N3CCCC3)n2)c1", "activation": "inactive: 6.76%"}, {"smiles": "COc1ccc(-c2nnc3c4ccccc4c(C)nn23)cc1", "Potency": "inconclusive [activator, partial curve, poor fit]"}, {"smiles": "COCc1cc(C)nc(SCC(=O)N2CCC(C)CC2)c1C#N", "Potency": "inconclusive [activator, single point]"}, {"smiles": "c1ccc(-c2nn3nnnc3c3ccccc23)cc1", "Potency": "inconclusive [activator, partial curve]"}, {"smiles": "COc1ccc(C(=O)c2cc([N+](=O)[O-])ccc2N2CCOCC2)cc1", "Potency": "inconclusive [activator, partial curve]"}, {"smiles": "CNC(=S)N(CCc1cccc(C)c1)Cc1cc2cc(OC)c(OC)cc2[nH]c1=O", "Potency": "inconclusive [activator, partial curve, poor fit]"}, {"smiles": "COc1ccc(C(=O)NCC(C)(C)CNC(=O)c2ccc(OC)c(OC)c2)cc1OC", "Potency": "inconclusive [activator, single point]"}, {"smiles": "COc1ccc(-n2cnc3cc(NS(=O)(=O)c4ccccc4)ccc32)cc1", "Potency": "inconclusive [activator, partial curve]"}, {"smiles": "O=C(NC1CCN(Cc2ccccc2)CC1)C1COc2ccccc2O1", "note": "(stereo not drawn)", "activation": "inactive: -2.8%"}, {"smiles": "OCCN(Cc1ccccc1)CC1CC=CCC1", "note": "(stereo not drawn)", "Potency": "inconclusive [activator, partial curve, poor fit]"}, {"smiles": "COc1cccc(/C=C2\\SC(=S)N(CCCC(=O)N3CCCCC3)C2=O)c1", "activation": "inactive: -4.47%"}, {"smiles": "N#CCSc1nc2ccccc2c(=O)n1CC1CCCC1", "Potency": "inconclusive [activator, partial curve, poor fit]"}, {"smiles": "Cc1ccc(C)c(C(=O)c2ccccc2NC(=O)c2ccccn2)c1", "Potency": "inconclusive [activator, single point]"}, {"smiles": "O=C(CN1CCOCC1)Nc1ncc(Cc2cccc(Cl)c2)s1", "activation": "inactive: 19%"}, {"smiles": "Nc1cccc2[nH]c(=O)c3ccccc3c12", "activation": "inactive: 2.8%"}, {"smiles": "COc1cc2ccnc(Cc3cccc(OC)c3OC)c2cc1OC", "Potency": "inconclusive [activator, partial curve, poor fit]"}, {"smiles": "COc1ccc(C(=O)NC2CC(C)(C)Cc3c2cnn3-c2ccccc2C)c(OC)c1OC", "note": "(stereo not drawn)", "Potency": "inconclusive [activator, partial curve, poor fit]"}, {"smiles": "S=c1[nH]nc(Cc2cccs2)n1-c1ccccc1", "activation": "inactive: -2.47%"}, {"smiles": "COc1cc(OC)c2c(-c3ccccc3)cc(=O)oc2c1C(CC(=O)N1CCCC1)c1ccc2c(c1)OCO2", "note": "(stereo not drawn)", "Potency": "inconclusive [activator, partial curve, poor fit]"}, {"smiles": "COc1ccc(Br)cc1CN(C)C(=O)c1cc(Cl)c2c(c1)OCCO2", "Potency": "inconclusive [activator, partial curve, poor fit]"}, {"smiles": "CCC(=O)Nc1nonc1-c1nc2ccccc2n1CCC(C)C", "activation": "inactive: 4.95%"}, {"smiles": "CN=C1S/C(=C\\c2ccc(O)c(OC)c2)C(=O)N1C", "Potency": "inconclusive [activator, partial curve, poor fit]"}, {"smiles": "Cc1ccc(C)c(S(=O)(=O)Nc2ccc(C(=O)N3CCOCC3)cc2)c1", "activation": "inactive: -5.46%"}, {"smiles": "Cc1ccc(CN2CCN(C(=O)c3cccc4ccccc34)CC2)cc1", "activation": "inactive: 12.2%"}, {"smiles": "COc1ccc(-c2cnc3c(NC(C)=O)cc(-c4cccc(C(=O)NCCN(C)C)c4)cn23)cc1OC", "Potency": "inconclusive [activator, full curve, poor fit]"}, {"smiles": "NC(=S)Cc1ccccc1Cl", "activation": "inactive: 3.78%"}, {"smiles": "O=C(OCc1c(F)cccc1Cl)c1cc([N+](=O)[O-])ccc1N1CCOCC1", "Potency": "inconclusive [activator, partial curve, poor fit]"}, {"smiles": "C=CCOc1ccc(Cl)cc1-c1noc(-c2csc([C@H]3C[C@H](O)[C@@H](CO)O3)n2)n1", "Potency": "inconclusive [activator, partial curve, poor fit]"}, {"smiles": "CCN(CC)C(=O)COc1ccc2c3c(c(=O)oc2c1)CCCC3", "Potency": "inconclusive [activator, partial curve, poor fit]"}, {"smiles": "O=C(Nc1ncc(Cc2ccccc2)s1)c1cccs1", "activation": "inactive: -10.3%"}, {"smiles": "C/C(=N\\NC(=O)CC(C)C)c1ccc(Cl)c(Cl)c1", "Potency": "inconclusive [activator, single point]"}, {"smiles": "COc1ccc(CC(=O)O/N=C(\\N)c2ccccc2)cc1OC", "Potency": "inconclusive [activator, partial curve, poor fit]"}, {"smiles": "C=CCn1c(SCc2cc(C(C)=O)ccc2OCC)nc2ccccc2c1=O", "Potency": "inconclusive [activator, full curve, poor fit]"}, {"smiles": "O=[N+]([O-])c1ccccc1OCCCOc1cccc2cccnc12", "Potency": "inconclusive [activator, single point]"}, {"smiles": "Cc1ccc2c(CNCCc3ccco3)c(C(=O)O)n(Cc3ccc(F)cc3)c2c1", "activation": "inactive: -2%"}, {"smiles": "N#CC1=C(N)NC(SCC(=O)Nc2ccccc2)=C(C#N)C12CCCC2", "Potency": "inconclusive [activator, full curve, poor fit]"}, {"smiles": "CC(C)OC(=O)CSc1nc(N)c(C#N)cc1C#N", "Potency": "inconclusive [activator, partial curve, poor fit]"}, {"smiles": "COc1ccc(S(=O)(=O)Nc2ccccc2-c2nnn(CC(=O)Nc3ccccc3OC)n2)cc1", "activation": "inactive: -3.2%"}, {"smiles": "COc1cccc(NC(=S)NCc2ccc3c(c2)cc(C)n3C)c1", "activation": "inactive: -1.43%"}, {"smiles": "O/N=C(/c1ccc(Cl)cc1)C1CC1c1ccccc1", "note": "(stereo not drawn)", "Potency": "inconclusive [activator, partial curve, poor fit]"}, {"smiles": "Clc1ccc(CN2C3=NCCCN3c3ccccc32)cc1", "activation": "inactive: -15.4%"}, {"smiles": "CCOc1cc(Br)c(COc2ccc(C)nc2[N+](=O)[O-])cc1OCC", "Potency": "inconclusive [activator, single point]"}, {"smiles": "COc1ccc(-c2nc(C#N)c(N3CCOCC3)o2)cc1OC", "Potency": "inconclusive [activator, single point]"}, {"smiles": "COc1ccc(C2C(C#N)=C(N)Oc3c2ccc2cccnc32)cc1OC", "note": "(stereo not drawn)", "Potency": "inconclusive [activator, single point]"}, {"smiles": "N#Cc1c(N2CCSCC2)nsc1-c1ccccc1Cl", "Potency": "inconclusive [activator, single point]"}, {"smiles": "CC12CCC(=O)C=C1CCC1C2CCC2(C)C1CCC2(O)C(=O)CO", "note": "(stereo not drawn)", "activation": "inactive: 18.7%"}, {"smiles": "CCS(=O)(=O)NCCc1cc2ccc(C)cc2[nH]c1=O", "Potency": "inconclusive [activator, full curve, poor fit]"}, {"smiles": "CN(c1ccccc1)c1nc(N)c([N+](=O)[O-])c(Nc2ccccc2F)n1", "Potency": "inconclusive [activator, partial curve]"}, {"smiles": "O=C(/C=C/c1ccc(-c2cccc([N+](=O)[O-])c2)o1)N1CCOCC1", "Potency": "inconclusive [activator, partial curve, poor fit]"}, {"smiles": "CCOC(=O)c1c(C)n(C)c2cc(Br)c(C(=O)OC)cc12", "Potency": "inconclusive [activator, partial curve, poor fit]"}, {"smiles": "COc1ccc2[nH]cc(CCNC(=O)CS(=O)(=O)Cc3ccccc3)c2c1", "Potency": "inconclusive [activator, single point]"}, {"smiles": "CN=C(NC)NCc1ccccc1", "activation": "inactive: 0.348%"}, {"smiles": "CCOc1ccc(C(=O)OCC(=O)Nc2cccnc2Cl)cc1OCC", "Potency": "inconclusive [activator, partial curve]"}, {"smiles": "COc1ccc(-c2cc(C(F)F)n3ncc(C(=O)N4CCCCC4)c3n2)cc1", "Potency": "inconclusive [activator, partial curve, poor fit]"}, {"smiles": "Cc1ccc2[nH]c3c(=O)n(CC(=O)N4CC(C)CC(C)C4)ncc3c2c1", "note": "(stereo not drawn)", "activation": "inactive: 4.62%"}, {"smiles": "COc1cc2c(cc1[N+](=O)[O-])n(C(C)C)c(=O)n2C(C)C", "Potency": "inconclusive [activator, partial curve]"}, {"smiles": "COc1ccc(CN(C)C(=O)c2cccc(Oc3ccccc3)c2)c(OC)c1OC", "Potency": "inconclusive [activator, partial curve, poor fit]"}, {"smiles": "Cc1cc(C)c(NS(=O)(=O)c2ccc(NC(=O)CCC(=O)O)cc2)c(C)c1", "activation": "inconclusive: 32.1% [activator]"}]}]}
